This note sets out measurements from article PMC9911399, “Two distinct binding modes provide the RNA-binding protein RbFox with extraordinary sequence specificity”.

Residue numbers refer to the chain shown, from its start. The list shows a part of the results.

The labels stand for the following.
T1: RBFOX1 RRM (Homo sapiens, UniProt Q9NWB1 109-208)
T1 sequence: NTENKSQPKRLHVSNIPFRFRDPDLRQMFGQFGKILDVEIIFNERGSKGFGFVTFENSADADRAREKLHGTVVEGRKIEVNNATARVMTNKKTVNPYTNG

B1: CUGUCAC (DNA:RNA)
RNA: GGGAGACCGGAAUUCAGAUUGUCCCUGUCACUUAAAUCCCGUCGUAGCCACCA
DNA 1: CAATCTGAATTCCGGTCTCCC
DNA 2: TGGTGGCTACGACGGGATT
B2: GGCAUAU (DNA:RNA)
RNA: B1 RNA with C25G, U26G, G27C, U28A, C29U, C31U
DNA 1: CAATCTGAATTCCGGTCTCCC
DNA 2: TGGTGGCTACGACGGGATT
B3: CUUGUAC (DNA:RNA)
RNA: B1 RNA with G27U, U28G, C29U
DNA 1: CAATCTGAATTCCGGTCTCCC
DNA 2: TGGTGGCTACGACGGGATT
B4: GCCAUAC (DNA:RNA)
RNA: B1 RNA with C25G, U26C, G27C, U28A, C29U
DNA 1: CAATCTGAATTCCGGTCTCCC
DNA 2: TGGTGGCTACGACGGGATT
B5: AAACGAG (DNA:RNA)
RNA: B1 RNA with C25A, U26A, G27A, U28C, C29G, C31G
DNA 1: CAATCTGAATTCCGGTCTCCC
DNA 2: TGGTGGCTACGACGGGATT
B6: AGGGGCA (DNA:RNA)
RNA: B1 RNA with C25A, U26G, U28G, C29G, A30C, C31A
DNA 1: CAATCTGAATTCCGGTCTCCC
DNA 2: TGGTGGCTACGACGGGATT
B7: CAUGGCG (DNA:RNA)
RNA: B1 RNA with U26A, G27U, U28G, C29G, A30C, C31G
DNA 1: CAATCTGAATTCCGGTCTCCC
DNA 2: TGGTGGCTACGACGGGATT
B8: UGCCCAC (DNA:RNA)
RNA: B1 RNA with C25U, U26G, G27C, U28C
DNA 1: CAATCTGAATTCCGGTCTCCC
DNA 2: TGGTGGCTACGACGGGATT
B9: CCAUCAG (DNA:RNA)
RNA: B1 RNA with U26C, G27A, C31G
DNA 1: CAATCTGAATTCCGGTCTCCC
DNA 2: TGGTGGCTACGACGGGATT
B10: UCAUAAC (DNA:RNA)
RNA: B1 RNA with C25U, U26C, G27A, C29A
DNA 1: CAATCTGAATTCCGGTCTCCC
DNA 2: TGGTGGCTACGACGGGATT
B11: UAACCAG (DNA:RNA)
RNA: B1 RNA with C25U, U26A, G27A, U28C, C31G
DNA 1: CAATCTGAATTCCGGTCTCCC
DNA 2: TGGTGGCTACGACGGGATT
B12: GGUCAAU (DNA:RNA)
RNA: B1 RNA with C25G, U26G, G27U, U28C, C29A, C31U
DNA 1: CAATCTGAATTCCGGTCTCCC
DNA 2: TGGTGGCTACGACGGGATT
B13: GAGGCGC (DNA:RNA)
RNA: B1 RNA with C25G, U26A, U28G, A30G
DNA 1: CAATCTGAATTCCGGTCTCCC
DNA 2: TGGTGGCTACGACGGGATT
B14: AACACUA (DNA:RNA)
RNA: B1 RNA with C25A, U26A, G27C, U28A, A30U, C31A
DNA 1: CAATCTGAATTCCGGTCTCCC
DNA 2: TGGTGGCTACGACGGGATT
B15: ACUGUAU (DNA:RNA)
RNA: B1 RNA with C25A, U26C, G27U, U28G, C29U, C31U
DNA 1: CAATCTGAATTCCGGTCTCCC
DNA 2: TGGTGGCTACGACGGGATT
B16: GCAAGGU (DNA:RNA)
RNA: GGGAGACCGGAAUUCAGAUUGUCCGCAAGGUUUAAAUCCCGUCGUAGCCACCA
DNA 1: CAATCTGAATTCCGGTCTCCC
DNA 2: TGGTGGCTACGACGGGATT
B17: GCUGCUC (DNA:RNA)
RNA: B1 RNA with C25G, U26C, G27U, U28G, A30U
DNA 1: CAATCTGAATTCCGGTCTCCC
DNA 2: TGGTGGCTACGACGGGATT
B18: CUCGAAA (DNA:RNA)
RNA: B1 RNA with G27C, U28G, C29A, C31A
DNA 1: CAATCTGAATTCCGGTCTCCC
DNA 2: TGGTGGCTACGACGGGATT
B19: ACGCCAU (DNA:RNA)
RNA: B1 RNA with C25A, U26C, U28C, C31U
DNA 1: CAATCTGAATTCCGGTCTCCC
DNA 2: TGGTGGCTACGACGGGATT
B20: UUCGCUC (DNA:RNA)
RNA: B1 RNA with C25U, G27C, U28G, A30U
DNA 1: CAATCTGAATTCCGGTCTCCC
DNA 2: TGGTGGCTACGACGGGATT
B21: CUCGGUU (DNA:RNA)
RNA: B1 RNA with G27C, U28G, C29G, A30U, C31U
DNA 1: CAATCTGAATTCCGGTCTCCC
DNA 2: TGGTGGCTACGACGGGATT
B22: CGGCCCG (DNA:RNA)
RNA: B1 RNA with U26G, U28C, A30C, C31G
DNA 1: CAATCTGAATTCCGGTCTCCC
DNA 2: TGGTGGCTACGACGGGATT
B23: UUCUAGA (DNA:RNA)
RNA: B1 RNA with C25U, G27C, C29A, A30G, C31A
DNA 1: CAATCTGAATTCCGGTCTCCC
DNA 2: TGGTGGCTACGACGGGATT
B24: ACAUUAC (DNA:RNA)
RNA: B1 RNA with C25A, U26C, G27A, C29U
DNA 1: CAATCTGAATTCCGGTCTCCC
DNA 2: TGGTGGCTACGACGGGATT
B25: GAGGUAG (DNA:RNA)
RNA: B1 RNA with C25G, U26A, U28G, C29U, C31G
DNA 1: CAATCTGAATTCCGGTCTCCC
DNA 2: TGGTGGCTACGACGGGATT
B26: UGCGGUC (DNA:RNA)
RNA: B1 RNA with C25U, U26G, G27C, U28G, C29G, A30U
DNA 1: CAATCTGAATTCCGGTCTCCC
DNA 2: TGGTGGCTACGACGGGATT
B27: AUACUGU (DNA:RNA)
RNA: B16 RNA with G25A, C26U, A28C, G29U
DNA 1: CAATCTGAATTCCGGTCTCCC
DNA 2: TGGTGGCTACGACGGGATT
B28: GUGAUCC (DNA:RNA)
RNA: B1 RNA with C25G, U28A, C29U, A30C
DNA 1: CAATCTGAATTCCGGTCTCCC
DNA 2: TGGTGGCTACGACGGGATT
B29: UCGAACC (DNA:RNA)
RNA: B1 RNA with C25U, U26C, U28A, C29A, A30C
DNA 1: CAATCTGAATTCCGGTCTCCC
DNA 2: TGGTGGCTACGACGGGATT
B30: GUCAGCU (DNA:RNA)
RNA: B16 RNA with C26U, A27C, G30C
DNA 1: CAATCTGAATTCCGGTCTCCC
DNA 2: TGGTGGCTACGACGGGATT
B31: GACAGAU (DNA:RNA)
RNA: B16 RNA with C26A, A27C, G30A
DNA 1: CAATCTGAATTCCGGTCTCCC
DNA 2: TGGTGGCTACGACGGGATT

This test addresses T1, RBFOX1 RRM. The experiment in a line: EMSA; HiTS-Eq, 1 nM pool, 10 min; buffer printed only for the single-RNA assays: 10 mM Tris pH 7.5, 150 mM NaCl, 3.4 mM EDTA, 0.001% NP-40, 30 C. The conditions noted are these: tags: His6 N-terminal (pET28a); label: 5' 32P. Summed up: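 Purified RbFox RRM (wild type or mutant) was equilibrated for 10 min in 50 µL with 1 nM of a 5′-radiolabelled pool of RNA with 7 randomized nucleotides, its flanks annealed to DNA oligonucleotides, across increasing protein concentrations. Free RNA was separated by 8% native PAGE, excised, reverse-transcribed, PCR-barcoded and sequenced on an Illumina HiSeq 2500. Relative association constants came from read-count changes of each variant against the control reaction, normalised to the cognate motif.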
(In EMSA bound probe runs differently from free probe, usually more slowly.)
On to B1, for which the binding signal was 0.0113 KA relative to UGCAUGU. With B2 the figure was 0.00314 KA relative to UGCAUGU. With B3 the figure was 0.00942 KA relative to UGCAUGU; with B4, 0.00662 KA relative to UGCAUGU. With B5 the figure was 0.00397 KA relative to UGCAUGU. As for B6, the binding signal is 0.0186 KA relative to UGCAUGU.

Regarding B7, the binding signal is 0.0121 KA relative to UGCAUGU. As for B8, the binding signal is 0.0137 KA relative to UGCAUGU.

Take B9: the binding signal was 0.00445 KA relative to UGCAUGU. B10: the binding signal is 0.00106 KA relative to UGCAUGU. As for B11, the binding signal is 0.00446 KA relative to UGCAUGU. For B12, the binding signal is 0.00248 KA relative to UGCAUGU. For B13 the value was 0.0219 KA relative to UGCAUGU; for B14, 0.000181 KA relative to UGCAUGU. For the molecule B15, the binding signal was 0.00512 KA relative to UGCAUGU. Regarding B16, the binding signal is 0.00853 KA relative to UGCAUGU. For B17 the value was 0.0171 KA relative to UGCAUGU. For B18 the value was 0.00304 KA relative to UGCAUGU; for B19, 0.00141 KA relative to UGCAUGU; for B20, 0.0157 KA relative to UGCAUGU. Regarding B21, the binding signal was 0.0133 KA relative to UGCAUGU. Turning to B22, the binding signal was 0.00673 KA relative to UGCAUGU.

Take B23: the binding signal was 0.0127 KA relative to UGCAUGU. As for B24, the binding signal was 0.00108 KA relative to UGCAUGU. As to B25, the binding signal was 0.0154 KA relative to UGCAUGU. With B26 the figure was 0.0174 KA relative to UGCAUGU. For B27 the value was 0.0026 KA relative to UGCAUGU; for B28, 0.0187 KA relative to UGCAUGU; for B29, 0.00388 KA relative to UGCAUGU.

With B30, the binding signal is 0.0081 KA relative to UGCAUGU. For B31 the value was 0.0102 KA relative to UGCAUGU.
